The other results are listed elsewhere or left out.

The assay has as its system PfHDP1 homeodomain (GST-tagged). The assay can be described thus: gcPBM binding intensity (ln(normalized median fluorescence intensity)); higher = stronger DNA binding. In short, it runs like this: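 Probes on an Agilent 4 × 180k array were primer-extended, double-stranded and 36 bp long, taken from intergenic genomic regions, with negative controls added. GST-tagged P. falciparum DNA-binding domains from E. coli, about 25 μg on average, were applied to the array for 1 h in 1× PBS containing 1% milk, 0.2 mg/ml BSA, 0.5% salmon testes DNA and 0.03% Triton X-100. Binding intensity, obtained after Alexa488 anti-GST antibody detection and a 488 nm scan, is the highest Masliner-normalised natural-log median intensity across replicate spots of either probe orientation.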
As to “TTTTGTTCTAATATGGGAACATAAATATTAAATATA [CACACA_negctrl_site1787]”, the “gcPBM binding intensity (ln)” value was found to be 6.22.
Regarding “AATGGAAAAGGTAGTTGTACAACATGTTAAAATGGT [XGTACX_site1312]”, the “gcPBM binding intensity (ln)” value turned out to be 7.56.
Turning to “ATATAAATATTAATTACACACAAAAAAAAAAAAAAA [CACACA_site6671]”, the “gcPBM binding intensity (ln)” value turned out to be 6.26.
“CTCAAAAAATTTCATAGTACTTTAAAATACTATAAT [XGTACX_site1939]”: the “gcPBM binding intensity (ln)” value is 6.14.
Under “AATAAAAAAAAACGCACACACAAATATATTCCATTC [CACACA_site1224]” stands 6.87; under “TTGAAGAATAAATATGCACACATGCATATATTTTTA [CACACA_site5840]”, 9.33; under “ATATAAATAAACAACTTTGTTGGCCTTCCAAAATAT [CACACA_negctrl_site1181]”, 6.29.
Under “GGGTTGATATATATTTGTACATATTATTATTTATTA [XGTACX_site7116]” stands 7.37; under “ATATATATATATTATGTGCGCATATACCATTTTAAT [GTGCAC_site9575]”, 8.83.
Under “TTTATTTTAACTTGTTCACACATTTGAATAAATAAA [CACACA_site5064]” stands 6.3; under “ACATTTATATATAATTGTACCCTACATTCTCTTTTT [XGTACX_site189]”, 6.43; under “GAAAAAAAAAAAAAAAGAAAATTCATATTTTTAATA [XGTACX_negctrl_site513]”, 6.08.
In the case of “AAAAATATATAAACACGTACACACACATATATGTAT [XGTACX_site7436]”, the “gcPBM binding intensity (ln)” value is 6.61.
Under “TACCAAAAAAAAAAAAAAAATTAAATAAATATGAAA [TGCATGCA_negctrl_site383]” stands 5.82; under “AGATATTTTTCTTAAGTACACACTAAATAGAAACTA [CACACA_site44]”, 6.12; under “TTTTTTTTTTTCAGTTGTACATTGGGAAAATATATA [XGTACX_site4416]”, 6.27.
Under “AGTCTGAATAAAATTACACACATATACCTATAAATA [CACACA_site6929]” stands 6.4; under “TTTAAAAAAATGAAATAAAAAAAAAATAAAATAAAA [XGTACX_negctrl_site316]”, 6.36.
For the sequence “AAATAATTTATATATTGTACAAATATTAAATGCGAA [XGTACX_site3390]”, the “gcPBM binding intensity (ln)” value was 7.16.
The same measure for “ATATATATAATTTGTACACACAAATATGCATATATA [CACACA_site3432]”: 6.64; for “AGTACATTTTTTTTAATAGGAAAAAAAATATTTATT [TGCATGCA_negctrl_site575]”: 6.17.
The same measure for “AAGTATTATTTTTATGCATGTGAAGTGCAAAATAAA [TGCATGCA_site198]”: 10.2.
The same measure for “ATAATATGTAATATTACACACAATTCATCATTTTTT [CACACA_site3159]”: 6.53; for “ATATACACCGTTGAATGTACATAAATAATATTAATA [XGTACX_site2893]”: 6.83.
For the sequence “AAAAAGTGACTCCTTACACACTTTACATAATTTAGT [CACACA_site4606]”, the “gcPBM binding intensity (ln)” value stood at 6.24.
On to “TAAAAGAATAAAAGTAGTACTTTTTTTTATATTAGA [XGTACX_site368]”, for which the “gcPBM binding intensity (ln)” value came to 5.7.
The same measure for “TCTTTTTTTTTTTATTGTACAAGAAAAGGAAAAAAT [XGTACX_site3717]”: 6.51; for “ATATTTTTATATTAGTGTACTTATTATAATGTATAG [XGTACX_site8185]”: 6.33; for “ATATAATATATATGGTGTACATTTTTTAGTGCTATT [XGTACX_site1662]”: 6.9.
The same measure for “TATATATATATTTATACACACATTAGTGTAGACATG [CACACA_site8964]”: 8.51.
For the sequence “TCCTTATAAATATATATATAATATATATATATATAT [CACACA_negctrl_site293]”, the “gcPBM binding intensity (ln)” value was determined as 8.74.
As to “TTGTTCTAATATATTGCACACGTAAAAATATAGGTA [CACACA_site8195]”, the “gcPBM binding intensity (ln)” value is 10.1.
Under “AAGTATGCATTATATACACACATACATTTATATATT [CACACA_site4242]” stands 6.78; under “TTGGTTATACAACACATGCACACGTAAATAAATATT [CACACA_site3841]”, 9.06; under “TATATATAAAGAGAAACATGCAAAATGTGAATATTC [TGCATGCA_site377]”, 7.26.
Under “ATTATGTTAAAAAGGCGTACATGTTATAAGGTCCTA [XGTACX_site344]” stands 6.5.
In the case of “AACCATTAATTCTCTACACACTTTTATTTTATTTAG [CACACA_site1769]”, the “gcPBM binding intensity (ln)” value was determined as 6.55.
On to “ACTTTATATTTTGAACGTACAAAAAAAAAATTATGT [XGTACX_site5588]”, for which the “gcPBM binding intensity (ln)” value was determined as 6.55.
With “GCACATATATACATACATACATACATACATATGTAT [TGCATGCA_negctrl_site95]”, the “gcPBM binding intensity (ln)” value amounted to 6.92.
Turning to “TTATATATTTTTACCATACACACATATAATAAATAT [CACACA_site3721]”, the “gcPBM binding intensity (ln)” value worked out at 6.9.
Regarding “ATAAAGATTTTCCAAGCATGCCACATAGTGAGATAC [TGCATGCA_site594]”, the “gcPBM binding intensity (ln)” value was 6.84.
On to “ATCATAAAAGTATACACACATACATACATATGTACA [CACACA_site2641]”, for which the “gcPBM binding intensity (ln)” value came to 6.83.
Under “TATATATATATTATATGTACATATTCCTATATATAC [XGTACX_site7071]” stands 8.62; under “TAAATATATATATATGTACACACTCCAATACATATA [CACACA_site8858]”, 6.7.
On to “TTATATGCATAAAAAGGTACACATATATAAATAAAT [XGTACX_site6894]”, for which the “gcPBM binding intensity (ln)” value was determined as 6.68.
For the sequence “AACAACCAAACGCACACACACAAAAAAAAAAATATA [CACACA_site6326]”, the “gcPBM binding intensity (ln)” value worked out at 7.51.
“TTTGTGTAGGTGTGTAGTACATATAACTTATAACAT [XGTACX_site7885]”: the “gcPBM binding intensity (ln)” value was determined as 7.04.
Under “TAATAAAATGTACACGCATGCAATAGAATATAAAGT [TGCATGCA_site905]” stands 8.24; under “ACATTTAAAATTTATGCATGTGGTGTTTTGTATATA [TGCATGCA_site534]”, 6.81.
Under “TATATTCATAATATTACACACGTTCATTTATTTTAA [CACACA_site2031]” stands 6.67.
Under “TATGGTTTTAAAAAATGTACGCAAGTGCGTTAATTT [XGTACX_site3945]” stands 7.62.
For “GAGTGAAATATGCAAACACACACGAGAAAAATGTAT [CACACA_site3196]”, the “gcPBM binding intensity (ln)” value was found to be 7.15.
The same measure for “TAATAAATAAAAATAGAACACACATATGTTTTTTTT [CACACA_site9185]”: 6.17.
Under “CAGTAGTATATACTATGTACATATTTATATTATATT [XGTACX_site4964]” stands 6.52; under “AATATAAATAAACACACACACATATATATATATATT [CACACA_site2906]”, 6.78; under “AAAAAAAAAAAAAAATGTACATATATATAAATAAAA [XGTACX_site5574]”, 6.44.
“ATATTTATATATTGCACACAAAAAAAAAAAAAAATC [CACACA_site1629]”: the “gcPBM binding intensity (ln)” value turned out to be 10.4.
Under “TATATATATATGTAATGTACATAAATTTTATACCTT [XGTACX_site6991]” stands 9.06.
For “TATACAGATGGACACACACACATATATATATATATA [CACACA_site5272]”, the “gcPBM binding intensity (ln)” value is 9.36.
“TTATAATTGTAAGGTAGTACATATAAATCAAATAAT [XGTACX_site7190]”: the “gcPBM binding intensity (ln)” value is 6.57.
The same measure for “ATGAATCTTTTAAAAAGTACATGTGAAAAAAATAAA [XGTACX_site49]”: 6.62; for “ATACAAACAATTATTTGTACATAAAATTTTTTTTTT [XGTACX_site90]”: 6.21; for “TTAAAATGTTGTAACGTGCACATTTTGTGGAAATCA [GTGCAC_site9559]”: 9.65.
The same measure for ATTTATTTCTTGTTAGTGCACTTTCTTTGGTAAAAT: 10.9.
As for “AAATTTATAAAGAACACACACATATAAATATAAATA [CACACA_site6174]”, the “gcPBM binding intensity (ln)” value is 6.93.
Under “TTATATATTTATATATGTACACATTTTACCATTTTT [XGTACX_site2142]” stands 6.22; under TTTTTTTGTTAAAAGGTGCTAATATATATAAGTGCT, 6.62.
Turning to “GTCCCTATAAGGGGAACACACATAAATGAATATATA [CACACA_site1024]”, the “gcPBM binding intensity (ln)” value was 6.16.
For “TTTCTATATAGATTTGCACACATAAAAATGCTTATA [CACACA_site2390]”, the “gcPBM binding intensity (ln)” value is 10.2.
As to “CTTTATACATGACATAGTACCCATTTTAGATTTGAA [XGTACX_site5240]”, the “gcPBM binding intensity (ln)” value turned out to be 6.54.
The same measure for “AAGGGAAAAATATGGTTGCACTAAAAATATGTAATT [GTGCAC_site9605]”: 8.11.
Under “AAACAAATAGACACTTGTACGTAAGTAAATAATTAA [XGTACX_site6157]” stands 6.37; under “TATGTTAAAAAAAAAAAAAAGAAAAAAATAAAAGGA [CACACA_negctrl_site119]”, 6.23.
With “TTTTTTTTTTTTACATGTACATATGAATTATAATAT [XGTACX_site5016]”, the “gcPBM binding intensity (ln)” value was 6.83.
For “TATTTTACTTTAAAAATGGAAAAAAAAAAGAATATT [CACACA_negctrl_site1360]”, the “gcPBM binding intensity (ln)” value came out at 6.27.
As for “ATTGTCATCATTATATGTACGTAAAAGAATATAGAT [XGTACX_site3117]”, the “gcPBM binding intensity (ln)” value came to 6.88.
For the sequence “GAAAGAAGCATAAATGTACACACATATTTATATATT [CACACA_site8368]”, the “gcPBM binding intensity (ln)” value worked out at 6.54.
On to “TTAATAAAACTAACACGTACACATATATAATATTAT [XGTACX_site3260]”, for which the “gcPBM binding intensity (ln)” value came to 6.71.
The same measure for “CGTGGAAAAAAAAACACACACAAAAAAAAAAAAAAA [CACACA_site3997]”: 6.34; for “TTCAAATATATGTTTTCACACACAAAAGAAATGAAA [CACACA_site8671]”: 6.48.
Under “ATATATATATAATATTGTACGAAAAAAAATAAAAAA [XGTACX_site974]” stands 8.1; under “TTTTCTCTAAAAAGGTGTACAACTAATAATGCACTG [XGTACX_site6074]”, 10.6.
The same measure for “AAATATAATTAATGATGTACACTTATAGATATTGAT [XGTACX_site8435]”: 6.65; for “TACTGATATAATATAACCGTTTATGTGTATTTTTTA [XGTACX_negctrl_site81]”: 6.51; for “TATAATAAAATTTTTACACACTTTAAAAAAAAAAAA [CACACA_site524]”: 6.16.
On to “TATTCTCGTTCTCATACACACAAAATATACATACAC [CACACA_site7278]”, for which the “gcPBM binding intensity (ln)” value was 7.19.
The same measure for “GGGTTAATATTTACTACACACACTTAAAATATGTAT [CACACA_site47]”: 6.86.
Regarding “ATGTATTTTTAAAAATATAAATTATGTAACTTGTGA [XGTACX_negctrl_site620]”, the “gcPBM binding intensity (ln)” value was determined as 6.42.
